Whole data set: some 33,000 sequences, median “E-score (-0.5 to 0.5)” near -0.041, cut for the highest 2% near 0.37. Some of the results follow.
Molecular target: T1, Ecm22 (UniProt Q05958)
T1 sequence: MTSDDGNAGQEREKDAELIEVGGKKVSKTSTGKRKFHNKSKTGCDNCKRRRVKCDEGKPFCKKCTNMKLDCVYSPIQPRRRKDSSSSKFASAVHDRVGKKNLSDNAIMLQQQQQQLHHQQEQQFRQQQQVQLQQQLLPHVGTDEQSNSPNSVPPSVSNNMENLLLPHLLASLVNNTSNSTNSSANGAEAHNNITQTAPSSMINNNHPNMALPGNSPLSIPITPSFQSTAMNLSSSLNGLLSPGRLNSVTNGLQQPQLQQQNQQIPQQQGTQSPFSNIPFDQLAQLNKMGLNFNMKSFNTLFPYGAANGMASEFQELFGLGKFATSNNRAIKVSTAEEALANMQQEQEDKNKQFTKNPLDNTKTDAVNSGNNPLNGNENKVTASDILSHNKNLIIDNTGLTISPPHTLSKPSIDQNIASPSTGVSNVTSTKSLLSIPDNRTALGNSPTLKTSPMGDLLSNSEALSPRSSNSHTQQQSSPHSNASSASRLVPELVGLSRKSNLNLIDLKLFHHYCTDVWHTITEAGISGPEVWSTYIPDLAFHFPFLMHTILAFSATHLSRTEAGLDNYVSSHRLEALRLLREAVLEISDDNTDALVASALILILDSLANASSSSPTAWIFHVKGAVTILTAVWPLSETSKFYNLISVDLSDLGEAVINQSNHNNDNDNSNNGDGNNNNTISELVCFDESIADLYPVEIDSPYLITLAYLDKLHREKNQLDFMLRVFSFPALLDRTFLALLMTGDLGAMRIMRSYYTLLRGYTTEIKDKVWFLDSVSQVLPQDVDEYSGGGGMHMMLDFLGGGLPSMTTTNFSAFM
Test: PBM E-score (8-mer binding enrichment) (E-score (-0.5 to 0.5)); higher = stronger / more preferred TF binding; most listed sequences are background and not binding sites
Conditions: protein concentration: 200 nM; construct: GST-full length
Method: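 Universal 'all 10-mer' protein binding microarrays (Agilent AMADID 015681) probed with GST-tagged S. cerevisiae TFs (full-length or DBD) made by in vitro transcription/translation (PURExpress), about 100-200 nM. Bound TF was detected with fluorescent anti-GST. Each ungapped 8-mer (which stands for itself and its reverse complement) is scored by the PBM enrichment score (E-score), a modified Wilcoxon-Mann-Whitney statistic from -0.5 to +0.5, computed with the Universal PBM Analysis Suite. Scale: above 0.35 generally sequence-specific binding.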

| Sequence | PBM E-score |
| --- | --- |
| GCCAACCA | -0.0776 |
| AGATTAGG | -0.0524 |
| ACGTAGCA | 0.0433 |
| CGCCTTCC | -0.138 |
| CGACGACC | 0.154 |
| AAGGTTAA | -0.127 |
| AGCCTTTG | -0.191 |
| AACGGAAT | 0.169 |
| ACAGCCGA | -0.122 |
| GAATGTAA | -0.0287 |
| CGCGCTAA | 0.122 |
| CGAGCACA | 0.225 |
| ATCCTGTG | -0.15 |
| CCAGTCGG | -0.0722 |
| GATAGACA | -0.00063 |
| AATAATTA | 0.0914 |
| ATGGGCGG | -0.0723 |
| ATTAGTAC | 0.137 |
| AAGTATGG | -0.193 |
| CTAAGATC | -0.0418 |
| CCCAATAG | -0.102 |
| AGCGTTTC | -0.0147 |
| GGTAGGTA | -0.00227 |
| GCGTCCGA | 0.18 |
| CCACATTC | -0.207 |

| Sequence | PBM E-score |
| --- | --- |
| GCAGATCC | -0.152 |
| AGGGGGCC | -0.295 |
| CATTAGCA | -0.0515 |
| TGACCTAA | 0.1 |
| CTTTCCGC | -0.0543 |
| AGGTGACT | -0.0719 |
| AGCTCTCG | 0.132 |
| ATCTGACA | -0.139 |
| CCATGTAG | -0.262 |
| AATGCCCT | -0.259 |
| AAGAAAGA | -0.00143 |
| GGTGCCGA | -0.072 |
| CTAGAAAC | -0.117 |
| ACGGTCGG | 0.274 |
| TGATCGCA | -0.0274 |
| AGATGAGG | -0.186 |
| GAAACCTC | 0.0577 |
| AGGAGTGC | -0.0873 |
| CGTATCTA | 0.326 |
| CAGGTAAC | -0.0723 |
| ACAGAAAC | 0.00059 |
| CGATATCG | 0.273 |
| CCCTCAAC | -0.248 |
| TTACGAAA | 0.403 |
| AACTATTG | -0.107 |

| Sequence | PBM E-score |
| --- | --- |
| AAGCCATT | -0.0128 |
| AGTAACCC | 0.0283 |
| CCCAAAGC | -0.156 |
| CCTCTCCG | -0.264 |
| AGTGACAA | -0.0461 |
| AGTAGGCA | 0.0082 |
| TCACGACA | 0.00255 |
| ACGACTCG | 0.39 |
| CTCGGGTC | 0.276 |
| AGGAGGCC | -0.266 |
| GAATATAA | -0.113 |
| CGGTAATA | 0.0412 |
| ATAGCTTC | 0.0331 |
| GATACTAC | -0.0378 |
| CAGGTGGC | -0.214 |
| ATAGTTGC | -0.00752 |
| ACCAGCCG | -0.0155 |
| ACTTGAAT | -0.108 |
| CGACCTCC | 0.203 |
| TACAGAAA | 0.039 |
| CGTAGTCA | 0.0196 |
| CCAGTTCA | -0.146 |
| GAGGATAC | 0.0845 |
| CCTCAGTA | 0.00549 |
| AATCATTA | -0.0676 |

| Sequence | PBM E-score |
| --- | --- |
| CAAGACTC | -0.126 |
| CATCGCGA | 0.162 |
| CGGCACCC | -0.186 |
| CCGGTCAA | -0.0857 |
| ATAAGGCG | -0.0006 |
| CGGTCAAA | 0.219 |
| GGAGGAAC | 0.149 |
| AGCTCAAA | -0.0469 |
| CGACGTGA | 0.185 |
| AGGCTTGA | -0.117 |
| ATCTCAAG | -0.235 |
| CCGCTCAA | -0.0797 |
| AGACACTG | -0.0372 |
| ATCAGCGC | -0.18 |
| GCCTCCGA | -0.182 |
| CTGCATCA | -0.101 |
| AAAGGGGT | -0.196 |
| CCTACTTC | -0.017 |
| AACAACGG | -0.00412 |
| ATATACAC | 0.125 |
| CTAAATAG | -0.157 |
| GATCGGGA | 0.0412 |
| AGTCAATG | -0.0767 |
| AGGGGAAG | -0.0801 |
| CCTGTGTC | -0.165 |

| Sequence | PBM E-score |
| --- | --- |
| CGTAGTAC | 0.276 |
| CCCCCGGC | -0.323 |
| ATATGGAG | 0.058 |
| GATCCCGA | -0.0329 |
| GTCCATCA | -0.219 |
| AGGTCCCG | 0.14 |
| GTAAGGCA | -0.0585 |
| CACGGCTG | -0.351 |
| GTACCGAA | 0.212 |
| CGCACCAA | 0.135 |
| ACGAATTC | 0.269 |
| GGGATCGA | 0.138 |
| ACCGTACC | 0.416 |
| CTGGGAGA | -0.143 |
| CAGCCCCC | -0.181 |
| AGCTGGGG | -0.297 |
| GGCTGAGA | -0.268 |
| AAAAACAA | 0.0897 |
| CGTCCTCA | -0.127 |
| GACAACTC | 0.0211 |
| ACCCCCTC | -0.274 |
| CCATGGTC | -0.0723 |
| ATGCAGAG | -0.159 |
| ATGGCGAA | -0.0108 |
| TCTCTGCA | -0.163 |

| Sequence | PBM E-score |
| --- | --- |
| CGGGGATA | 0.0242 |
| CCACATCG | 0.126 |
| AAGTTGTA | 0.112 |
| CGATTATC | 0.152 |
| AAACAACA | -0.0804 |
| ATAATTTG | 0.0315 |
| ACGCCACC | -0.0558 |
| TCTGAAGA | -0.177 |
| GCTCGATA | 0.0339 |
| AGATCTCA | -0.00483 |
| CGGGGTCC | -0.139 |
| GAGAACGA | 0.422 |
| AAGGGTCG | 0.102 |
| CGCATCCA | 0.0265 |
| GTAGTGAC | -0.103 |
| GGCTGTAA | -0.0621 |
| AGGCATTA | -0.148 |
| CATCGACG | -0.0608 |
| GCTTATGA | 0.0131 |
| GGCCATGA | -0.143 |
| GTTGTACA | 0.0399 |
| GCCGTTGA | -0.138 |
| ACGACGCT | 0.38 |
| GCTCGAGA | -0.122 |
| CCCGTTAA | 0.256 |

| Sequence | PBM E-score |
| --- | --- |
| ACAATAAA | -0.0297 |
| ATAGCTAC | 0.0664 |
| AACATTGG | -0.346 |
| ACTGTCAC | -0.0424 |
| CAGGGTTA | -0.161 |
| AGACATCA | -0.199 |
| AGGTGTTA | -0.14 |
| CGACGTCC | 0.17 |
| ACCGTAAG | 0.212 |
| CCGCGGGA | -0.0893 |
| CAAAAGTA | -0.0653 |
| AAGTCTCG | 0.236 |
| ATGGGCTA | -0.142 |
| CCGGAGGA | -0.171 |
| ACTAACTA | 0.0677 |
| AGTTGGGC | -0.0308 |
| GGTTTTTA | -0.102 |
| GACCGAAA | 0.122 |
| CTCTCCAA | -0.0556 |
| ATGGCACA | -0.179 |
| CCGTTGAG | -0.262 |
| TCTTTTAA | 0.0278 |
| AGGCGGTG | -0.1 |
| CAGCCCTC | -0.11 |
| CCTCTGCA | -0.0882 |

| Sequence | PBM E-score |
| --- | --- |
| ACTAGCCG | -0.0608 |
| TCATGCCA | -0.0357 |
| CTATGGCA | -0.179 |
| CGCTGAGC | -0.0955 |
| CCTACGAC | 0.232 |
| TCGTAAAA | 0.476 |
| ACACGGCC | -0.139 |
| CCAACCAA | -0.0915 |
| CTAATCGC | -0.0155 |
| CGAGAAAA | 0.183 |
| CAGCCACC | -0.124 |
| GTGAGGTA | -0.156 |
| CTCAGACC | -0.272 |
| AGTAATAT | 0.184 |
| CACAAAAG | -0.00092 |
| CAGGGCTC | -0.219 |
| GCGAGGCA | 0.296 |
| TATGAACA | 0.00828 |
| AAGACGCT | -0.0823 |
| ATTTAATA | 0.104 |
| AAATGGAA | -0.19 |
| AAGAAGCA | -0.162 |
| GCGCTACC | -0.0587 |
| TTATCAAA | 0.0809 |
| ACTCGAAT | 0.0074 |

| Sequence | PBM E-score |
| --- | --- |
| CGTAGCGA | 0.382 |
| CACACGAG | 0.169 |
| ATTTTGTA | 0.0586 |
| AAACACGA | 0.174 |
| ATTCTCCG | 0.0746 |
| AGATTATA | 0.00651 |
| CAGCTTCA | -0.0873 |
| TCAGCGAA | 0.0118 |
| ATTGCGGA | -0.0857 |
| CCGCAAGG | -0.0036 |
| CTAACGCA | -0.0321 |
| GAGTCCAC | -0.165 |
| AGTCTGAC | -0.132 |
| GATGGCAC | -0.00986 |
| AAAACTGA | -0.157 |
| CGCGACCA | 0.212 |
| GGTGGGTA | -0.0878 |
| ATCCTTCG | 0.157 |
| CACGATTA | 0.1 |

Source: the supplement of paper PMC3334620
